{
  "source": "PubChem BioAssay AID1458",
  "about": "(National Center for Advancing Translational Sciences (NCATS), 2008)",
  "note": "About 5,900 (2.8%) of roughly 210,000 compounds were called active. The inconclusive results got no clear call from the source; some entries with a clear call stand among them for comparison. The call rests on the fitted dose curve; in most records, active means well fitted activation curve with a large enough effect; inconclusive means small, poorly fitted or top-dose-only effect; inactive means no such curve, though single readings can be large or run the other way. Potencies beside an inconclusive call are fits to weak or partial responses and may not hold up. Potency means the concentration at half of the fitted maximal effect; tags describe the fitted curve by direction and shape.",
  "data": [
    {"experiment": "qHTS Assay for Enhancers of SMN2 Splice Variant Expression; further: nearly all actives have a fitted effect of over 55% in size; on activity change, positive = activation: % of control where 0% means no effect", "conditions": "HEK293 SMN2-luciferase splicing reporter, luminescence, 30-36 h; activity change, positive = activation: at 46.1 µM (top of the series)", "summary_of_the_method": "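qHTS luciferase splicing reporter: luminescence rises when SMN2 exon 7 is included in transfected HEK293 cells. Compound exposure lasted 30-36 h at 37C, with 4.5 mM final sodium butyrate as control, followed by a ONE-Glo read.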", "values": [
      {"smiles": "Cc1ccc(NC(=O)c2cc(Cl)nc3ccccc23)cc1", "Potency": "inactive"},
      {"smiles": "O=C(CCS(=O)(=O)c1ccccc1)NC12CC3CC(CC(C3)C1)C2", "Potency": "inconclusive: 14.1 µM [activator, single point]"},
      {"smiles": "O=C(Nc1ccc(N2CCCCC2)cc1)c1cncc(Br)c1", "Potency": "inconclusive: 11.2 µM [activator, single point]"},
      {"smiles": "COc1ccc(C(c2c(O)ccc3ccccc23)N2CCOCC2)c(OC)c1", "note": "(stereo not given)", "Potency": "inconclusive: 12.6 µM [activator, single point]"},
      {"smiles": "COc1ccccc1C(=O)NNC(=O)c1cccc([N+](=O)[O-])c1", "Potency": "inconclusive: 14.1 µM [activator, single point]"},
      {"smiles": "CCOC(=O)c1ccccc1NC1c2ccccc2C(=O)N1c1ccc(C)cn1", "note": "(stereo not given)", "Potency": "inconclusive: 6.31 µM [activator, full curve, poor fit]"},
      {"smiles": "C(=N\\N=C\\c1cccs1)/c1cccs1", "Potency": "inconclusive: 11.2 µM [activator, partial curve]"},
      {"smiles": "Cc1ccc(C(=O)OCC(=O)Nc2ccc3c(c2)OCO3)o1", "Potency": "inactive"},
      {"smiles": "Cc1ccccc1C(=O)NC1CCN(C(=O)N2CCOCC2)CC1", "Potency": "inconclusive: 0.0022 µM [activator, full curve, poor fit]"},
      {"smiles": "CC(C)(C)C(=O)NC(=S)Nc1sc2c(c1C(N)=O)CCC2", "Potency": "active: 10 µM"},
      {"smiles": "CCOC(=O)c1[nH]c(C)c(/C(O)=C2\\C(=O)C(=O)N(CCN(C)C)C2c2ccncc2)c1C", "note": "(stereo not given)", "Potency": "inactive"},
      {"smiles": "CCN(CC)CCOC(=O)CCc1cccc2ccccc12", "Potency": "inactive"},
      {"smiles": "Cc1cccc(NC2=CC(c3cccc(Br)c3)N(c3cccc(C)c3)C2=O)c1", "note": "(stereo not given)", "Potency": "inactive"},
      {"smiles": "CCNc1nc(NC(C)C)nc(Oc2ccc(OCCOc3ccccc3)nn2)n1", "Potency": "inconclusive: 22.4 µM [activator, single point]"},
      {"smiles": "Cc1ccc(C)c(NC(=O)c2cnc3n(c2=O)CCS3)c1", "Potency": "inconclusive: 11.2 µM [activator, partial curve]"},
      {"smiles": "O=c1ccc(-c2n[nH]c(=S)n2-c2ccc(F)c(Cl)c2)n[nH]1", "Potency": "inconclusive: 0.282 µM [activator, full curve, poor fit]"},
      {"smiles": "COc1ccc(CNC(=O)c2ccc3c(c2)CCN3S(=O)(=O)c2ccc(C)cc2)cc1", "Potency": "inactive"},
      {"smiles": "Cc1ccc(S(=O)(=O)N[C@@H](C)C(=O)N2CCC(C(=O)N3CCC[C@H]3C(=O)O)CC2)cc1", "Potency": "inconclusive: 0.224 µM [activator, full curve, poor fit]"},
      {"smiles": "Cc1ccc(N2NC(=O)/C(=C/c3ccc(-c4ccc(Cl)c(C(=O)O)c4)o3)C2=O)cc1", "Potency": "inactive"},
      {"smiles": "O=C(Nc1ccc(-c2cn3ccsc3n2)cc1)C1CCCC1", "Potency": "inconclusive: 0.0063 µM [activator, full curve, poor fit]"},
      {"smiles": "CCN(CC)S(=O)(=O)c1cccc(-c2n[nH]c(=S)n2/N=C/c2ccc(C(=O)OC)cc2)c1", "Potency": "inconclusive: 0.0282 µM [activator, full curve]"},
      {"smiles": "CC(OC(=O)c1nsc(Cl)c1Cl)C(=O)NCc1ccco1", "note": "(stereo not given)", "Potency": "inactive"},
      {"smiles": "C/C(=N/OC(=O)C1CC1c1ccccc1)c1ccccc1", "note": "(stereo not given)", "Potency": "inactive"},
      {"smiles": "CCOC(=O)CSc1nc(C)c(C(=O)OCC)s1", "Potency": "inactive"},
      {"smiles": "CC1(C)Cc2c(sc3nc4n(c(=O)c23)CCC4)CO1", "Potency": "inactive"},
      {"smiles": "COc1ccc(Nc2nnc(SCC(=O)c3cc(C)n(CC4CCCO4)c3C)s2)cc1", "note": "(stereo not given)", "Potency": "inactive"},
      {"smiles": "NC(=S)c1ccc[n+]([C@@H]2O[C@@H](COP(=O)([O-])OP(=O)(O)OC[C@H]3O[C@@H](n4cnc5c(N)ncnc54)[C@H](OP(=O)(O)O)[C@H]3O)C(O)C2O)c1", "note": "(stereo not given in full)", "Potency": "inconclusive: 35.5 µM [activator, single point]"},
      {"smiles": "CCC1Oc2ccccc2N(CC(=O)NCCCN2CCCCC2CC)C1=O", "note": "(stereo not given)", "Potency": "inconclusive: 0.0032 µM [activator, full curve, poor fit]"},
      {"smiles": "CCOc1ccc2nc(SCc3ccc(OC)cc3)sc2c1", "Potency": "inactive"},
      {"smiles": "N#CC(=C1CCCC1)c1nc(-c2ccc(Cl)cc2)cs1", "Potency": "inactive"},
      {"smiles": "Cc1sc(NC(=O)C2CCCCC2)c(C#N)c1-c1ccccc1", "Potency": "inconclusive: 11.2 µM [activator, single point]"},
      {"smiles": "O=C(CCCc1ccc(-c2ccccc2F)cc1)Nc1ccc(O)cc1", "Potency": "inconclusive: 12.6 µM [activator, partial curve]"},
      {"smiles": "CC(=O)N1CCN(c2ccc(NC(=O)c3ccc4c(c3)OCCO4)cc2)CC1", "Potency": "inactive"},
      {"smiles": "Cc1cc(=O)[nH]c(SCC(=O)N2CCCCCC2)n1", "Potency": "inconclusive: 2.51 µM [activator, partial curve]"},
      {"smiles": "C/C(=N\\NC(=O)C1=NNC(=O)C1C)c1cccs1", "note": "(stereo not given)", "Potency": "inconclusive: 11.2 µM [activator, partial curve]"},
      {"smiles": "Cc1ccc(C(=O)N2CCc3ccccc32)cc1", "Potency": "inconclusive: 25.1 µM [activator, single point]"},
      {"smiles": "Clc1ccc2c(N3CCC(CCC4CCN(c5ncnc6cc(Cl)ccc56)CC4)CC3)ncnc2c1", "activity change, positive = activation": "inactive: -15.9% [at 9.22 µM]"},
      {"smiles": "Cc1ccc2nc(NC(=S)NC(=O)c3cccs3)sc2c1", "Potency": "inconclusive: 11.2 µM [activator, partial curve]"},
      {"smiles": "COc1cccc(C(=O)NC(=S)Nc2cccnc2)c1", "Potency": "inconclusive: 12.6 µM [activator, single point]"},
      {"smiles": "COC(=O)c1nn(-c2ccc3c(c2)OCO3)cc1O", "Potency": "inconclusive: 35.5 µM [activator, single point]"},
      {"smiles": "Cc1ccc(S(=O)(=O)N2CCN(C(=O)C3COc4ccccc4O3)CC2)cc1C", "note": "(stereo not given)", "Potency": "inconclusive: 1.58 µM [activator, partial curve, poor fit]"},
      {"smiles": "O=C(NCCCN1CCN(c2cccc(Cl)c2)CC1)c1cccc(N2CCCC2=O)c1", "Potency": "inactive"},
      {"smiles": "CC1/C=C/C=C/C=C/C=C/C=C/C=C/C=C/C(OC2OC(C)C(O)C(N)C2O)CC2O[C@@](O)(CC(O)CC(O)C(O)CCC(O)CC(O)CC(=O)OC(C)[C@H](C)C1O)CC(O)C2C(=O)O", "note": "(stereo not given in full)", "Potency": "inactive"},
      {"smiles": "Cc1c(C#N)c(N)nc2c3c(sc12)NC(=O)CC3c1ccccc1", "note": "(stereo not given)", "Potency": "inconclusive: 8.91 µM [activator, partial curve, poor fit]"},
      {"smiles": "Cc1cnc(NC(=O)CCCc2nc3ccccc3s2)s1", "Potency": "inconclusive: 35.5 µM [activator, single point]"}
    ]}
  ]
}
